From PubChem BioAssay AID504333 (National Center for Advancing Translational Sciences (NCATS), 2011)
The whole screen tested about 360,000 compounds, of which about 16,000 (4.4%) were called active. Inconclusive means that the source gave no clear call. Such entries were picked first, then a sample of the others. The call rests on the fitted dose curve; in most records, active means well fitted inhibition curve with a large enough effect; inconclusive means small, poorly fitted or top-dose-only effect; inactive means no such curve, though single readings can be large or run the other way. Potencies of inconclusive entries are doubtful fits and often do not repeat.

Target: Bromodomain adjacent to zinc finger domain protein 2B (Homo sapiens) (UniProt Q9UIF8)
Chain of UniProt Q9UIF8 (Q9UIF8 whole entry, looked up, the tested form may be a part): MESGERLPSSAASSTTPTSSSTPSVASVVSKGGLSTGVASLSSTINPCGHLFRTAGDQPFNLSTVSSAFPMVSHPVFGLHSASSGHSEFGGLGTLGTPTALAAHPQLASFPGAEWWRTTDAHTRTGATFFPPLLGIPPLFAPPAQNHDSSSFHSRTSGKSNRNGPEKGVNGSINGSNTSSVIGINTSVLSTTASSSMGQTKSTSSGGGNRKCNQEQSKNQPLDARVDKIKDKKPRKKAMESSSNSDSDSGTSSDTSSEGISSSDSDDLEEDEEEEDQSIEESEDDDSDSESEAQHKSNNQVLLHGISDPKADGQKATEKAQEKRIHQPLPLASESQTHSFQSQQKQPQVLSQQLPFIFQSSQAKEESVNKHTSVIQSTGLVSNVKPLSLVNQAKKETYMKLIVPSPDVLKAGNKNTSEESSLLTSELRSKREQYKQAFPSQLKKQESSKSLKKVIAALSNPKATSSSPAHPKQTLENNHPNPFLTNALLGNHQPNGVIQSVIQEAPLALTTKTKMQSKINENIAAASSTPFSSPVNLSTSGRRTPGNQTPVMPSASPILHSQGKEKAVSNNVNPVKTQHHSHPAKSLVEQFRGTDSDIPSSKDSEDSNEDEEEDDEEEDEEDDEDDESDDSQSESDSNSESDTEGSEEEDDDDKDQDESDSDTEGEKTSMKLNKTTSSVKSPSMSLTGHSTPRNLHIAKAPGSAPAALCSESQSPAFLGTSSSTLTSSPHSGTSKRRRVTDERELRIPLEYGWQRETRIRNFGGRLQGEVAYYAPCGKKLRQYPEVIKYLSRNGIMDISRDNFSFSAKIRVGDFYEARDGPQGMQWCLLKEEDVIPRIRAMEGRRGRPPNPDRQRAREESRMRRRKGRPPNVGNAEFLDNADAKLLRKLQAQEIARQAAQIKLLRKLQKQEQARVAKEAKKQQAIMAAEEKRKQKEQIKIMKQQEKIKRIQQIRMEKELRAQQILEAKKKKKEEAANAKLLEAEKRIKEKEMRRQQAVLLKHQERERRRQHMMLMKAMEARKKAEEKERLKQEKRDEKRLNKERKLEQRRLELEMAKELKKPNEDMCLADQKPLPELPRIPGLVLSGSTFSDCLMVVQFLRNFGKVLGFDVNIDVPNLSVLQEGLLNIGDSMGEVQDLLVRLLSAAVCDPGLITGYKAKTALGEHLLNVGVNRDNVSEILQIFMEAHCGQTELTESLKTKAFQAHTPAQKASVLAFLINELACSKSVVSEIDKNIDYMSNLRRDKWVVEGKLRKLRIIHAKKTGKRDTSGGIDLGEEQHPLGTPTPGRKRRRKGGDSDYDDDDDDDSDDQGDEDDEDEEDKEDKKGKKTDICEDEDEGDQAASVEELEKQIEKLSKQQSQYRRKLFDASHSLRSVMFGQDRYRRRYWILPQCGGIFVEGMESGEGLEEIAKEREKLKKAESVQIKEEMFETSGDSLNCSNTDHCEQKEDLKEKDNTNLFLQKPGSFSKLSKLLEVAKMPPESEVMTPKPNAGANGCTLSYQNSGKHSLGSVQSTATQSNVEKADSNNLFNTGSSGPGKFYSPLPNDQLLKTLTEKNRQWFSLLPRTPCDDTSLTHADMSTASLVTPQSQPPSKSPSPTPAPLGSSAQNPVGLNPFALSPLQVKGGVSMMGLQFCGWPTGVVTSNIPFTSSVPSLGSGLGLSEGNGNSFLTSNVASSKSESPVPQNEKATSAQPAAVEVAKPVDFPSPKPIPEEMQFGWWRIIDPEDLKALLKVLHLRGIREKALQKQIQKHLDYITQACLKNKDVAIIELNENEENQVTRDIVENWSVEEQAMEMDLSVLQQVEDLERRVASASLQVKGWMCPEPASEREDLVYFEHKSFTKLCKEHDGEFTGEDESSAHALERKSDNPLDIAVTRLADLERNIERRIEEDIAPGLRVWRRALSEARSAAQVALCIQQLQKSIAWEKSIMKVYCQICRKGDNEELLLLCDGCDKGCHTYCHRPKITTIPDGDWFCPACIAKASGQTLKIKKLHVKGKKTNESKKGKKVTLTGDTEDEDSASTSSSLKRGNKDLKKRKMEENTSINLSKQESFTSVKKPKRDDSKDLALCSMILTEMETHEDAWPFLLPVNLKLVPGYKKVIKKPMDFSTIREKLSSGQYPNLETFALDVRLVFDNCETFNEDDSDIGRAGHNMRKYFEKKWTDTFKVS
Test: qHTS Assay for Inhibitors of BAZ2B; further: nearly all actives have a fitted effect of over 60% in size
Conditions: AlphaScreen BAZ2B-H3K14Ac peptide displacement; activity change, negative = inhibition: at 114 µM (top of the series) unless noted
Method in brief: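 Protein-peptide AlphaScreen: BAZ2B 50 nM, b-H3K14Ac 50 nM, 1x PBS pH 7.4 + 0.01% Tween-20. Preincubation 30 min RT; cpd 30 min RT (top 110 uM); beads 20 min RT, light-protected.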
On the % scale 0 is the no-effect control and ±100 the full control effect; potency means the concentration at half of the fitted maximal effect; tags describe the fitted curve by direction and shape.

Row | Compound | Potency | activity change, negative = inhibition
1 | Cc1cc(N2C(=O)C(O)=C(C(=O)c3cc4ccccc4o3)C2c2ccc([N+](=O)[O-])cc2)no1 (configuration not stated) | inconclusive: 22.4 µM [inhibitor, full curve] | 
2 | O=C(NC(=S)NCc1cccnc1)c1ccc([N+](=O)[O-])cc1 | inconclusive: 70.8 µM [inhibitor, single point] | 
3 | COc1ccc(CCC(=O)OCC(=O)Nc2ccc3[nH]c(=O)[nH]c3c2)cc1 |  | inactive: -4.66%
4 | Cn1cnnc1Sc1ccc(C(=O)NCCC23CC4CC(CC(C4)C2)C3)cc1[N+](=O)[O-] | inconclusive: 50.1 µM [inhibitor, partial curve] | 
5 | NNC(=O)C1CCCn2c1nc1sc3c(c1c2=O)CCCC3 (configuration not stated) | inconclusive: 39.8 µM [inhibitor, single point] | 
6 | O=C(COC(=O)c1ccc([N+](=O)[O-])o1)Nc1nc2ccccc2s1 | inconclusive: 70.8 µM [inhibitor, single point] | 
7 | O=C1CC(N2CCN(c3ccccc3)CC2)C(=O)N1c1cccc(Br)c1 (configuration not stated) | inconclusive: 79.4 µM [inhibitor, single point] | 
8 | OC(COCc1ccccc1)CN1CCN(c2ccccc2)CC1 (configuration not stated) | inconclusive: 89.1 µM [inhibitor, single point] | 
9 | COc1ccc(CCNC(=O)c2ccc3c(c2)N(Cc2ccc(F)cc2)CCS3)c(OC)c1 |  | inactive: -27.2%
10 | COc1cccc(N2C(=O)Nc3ccc(Br)cc3C2(O)C(=O)NCCCN(C)C)c1 (configuration not stated) |  | inactive: -0.986%
11 | Cn1c(SCC(=O)Nc2ccc3nc(SCC(=O)N4CCCC4)sc3c2)nnc1-c1ccc(N)cc1 | inconclusive: 89.1 µM [inhibitor, single point] | 
12 | COc1ccc(C(=O)Nc2ccccc2C(=O)NCc2ccco2)cc1OC | inconclusive: 89.1 µM [inhibitor, single point] | 
13 | Oc1ccc(-c2[nH]ncc2-c2ccc(Cl)cc2)c(O)c1 | inconclusive: 89.1 µM [inhibitor, single point] | 
14 | CC(C)Oc1ccc(CN2CCc3nc(Nc4ccc5c(c4)OCCO5)ncc3C2)cc1 | active: 31.6 µM | 
15 | CCOc1ccccc1N1CCN(C(=S)NC(=O)C23CC4CC(CC(C4)C2)C3)CC1 | inconclusive: 79.4 µM [inhibitor, single point] | 
16 | COc1cc(Cl)c(C)cc1NCC(=O)Nc1cccc(S(=O)(=O)N2CCCC2)c1 | inconclusive: 44.7 µM [inhibitor, partial curve] | 
17 | CC1CCN(C(=O)CSc2nc3ccccc3c(=O)n2Cc2ccc3c(c2)OCO3)CC1 | inconclusive: 79.4 µM [inhibitor, single point] | 
18 | Cc1onc(NC(=O)c2ccc(Cl)cc2Cl)c1Br |  | inactive: -4.95%
19 | COc1ccc(Cn2nnnc2C(c2ccccn2)N2CCN(c3cc(Cl)ccc3C)CC2)cc1 (configuration not stated) | inconclusive: 89.1 µM [inhibitor, single point] | 
20 | O=C(CSc1nccc(=O)[nH]1)c1cc2ccccc2o1 |  | inactive: -21.9%
21 | C#CCOCCOCCOCCNc1nc(N2CCN(C(=O)CCCCCCCCCCNC(=O)[C@H]([C@@H](C)CC)n3cc(CCCCN=C(N)N)nn3)CC2)nc(N2CCN(C(=O)CCCCCCCCCCNC(=O)[C@@H]([C@H](C)O)n3cc(C)nn3)CC2)n1 | inconclusive: 50.1 µM [inhibitor, partial curve] | 
22 | CCC(=O)Nc1nc(C)c(-c2csc(Nc3cccc(O)c3)n2)s1 | inconclusive: 50.1 µM [inhibitor, partial curve] | 
23 | CCCn1cc2c(c1-c1ccc(C)cc1)c(=O)n(C)c(=O)n2C | inconclusive: 79.4 µM [inhibitor, single point] | 

Row | Compound | Potency | activity change, negative = inhibition
24 | CCc1cccc(C)c1Nc1c(-c2ccc(SC)cc2)nc2sccn12 | active: 22.4 µM | 
25 | COc1cc(C(C)=O)ccc1O |  | inactive: 8.04%
26 | Fc1ccc(-c2noc3ncnc(Nc4ccc(F)cc4F)c23)cc1 |  | inactive: 29.4%
27 | CCOc1ccc(N(C(=O)c2ccc(Cl)cc2)S(=O)(=O)c2ccc3c(c2)n(C)c(=O)n3C)cc1 |  | inactive: -20.4%
28 | CCOC(=O)c1c(-c2ccc(C)o2)csc1NC(=O)CN1CCC(C(N)=O)CC1 | inconclusive: 70.8 µM [inhibitor, partial curve, poor fit] | 
29 | Cc1ccc2c(Cl)c(C(=O)NCCCn3ccnc3)sc2c1 | inconclusive: 79.4 µM [inhibitor, single point] | 
30 | Cc1ccnc(Nc2nc(-c3ccc(O)cc3O)cs2)c1 | active: 50.1 µM | 
31 | CCOC(=O)c1c(NC(=O)CN2CCCCC2)sc2c1CCN(C(=O)OCC)C2 | inconclusive: 50.1 µM [inhibitor, partial curve] | 
32 | Cc1cccc2sc(NC(=O)C3CCN(S(=O)(=O)c4cc([N+](=O)[O-])ccc4Cl)CC3)nc12 | inconclusive: 79.4 µM [inhibitor, single point] | 
33 | Cn1c(C(=O)NCCN2CCc3ccccc3C2)cc2c(=O)n(C)c3ccccc3c21 |  | inactive: -23.3%
34 | Cc1c(Cl)cnc(NC(=O)COC(=O)C(NC(=O)c2ccco2)C(C)C)c1Cl (configuration not stated) | inconclusive: 50.1 µM [inhibitor, partial curve] | 
35 | Cn1cccc1/C=N/NC(=O)Cc1cccc2ccccc12 | active: 14.1 µM | 
36 | O=C(NC1(C(=O)NC2CCCCC2)CCCCC1)c1ccccn1 | inconclusive: 100 µM [inhibitor, single point] | 
37 | COc1ccc(C(=O)NCCCn2ccnc2)cc1[N+](=O)[O-] | inconclusive: 50.1 µM [inhibitor, partial curve] | 
38 | COc1cc(/C=C(/C#N)C(=O)c2c(C)[nH]c3ccccc23)ccc1OCC#N | inconclusive: 39.8 µM [inhibitor, full curve, poor fit] | 
39 | Cc1ccc(CNC(=O)c2ccccc2SCC(=O)NCC2CCCCC2)cc1 |  | inactive: 6.61%
40 | O=C(O)CCCN1C(=O)/C(=C/c2cn(-c3ccccc3)nc2-c2cccs2)SC1=S | active: 44.7 µM | 
41 | Oc1ccc(/C=N/NC(=S)NC2CC3CCC2C3)cc1 (configuration not stated) | inconclusive: 79.4 µM [inhibitor, single point] | 
42 | Nc1ccc(Oc2ccccc2F)nc1 | inconclusive: 100 µM [inhibitor, single point] | 
43 | COc1cc(NC(=S)NCc2ccco2)c(OC)cc1Cl | inconclusive: 44.7 µM [inhibitor, partial curve] | 
44 | O=C(C1CCN(Cc2ccc(F)cc2)CC1)N1CCN(C/C=C/c2ccccc2)CC1 | active: 50.1 µM | 
45 | CCOC(=O)c1cnc2c(cnn2C)c1NCCC#N |  | inactive: 4.62%
46 | CCc1nnc(NC(=O)c2cc(-c3ccccn3)nc3ccccc23)s1 | inconclusive: 89.1 µM [inhibitor, single point] | 

Row | Compound | Potency | activity change, negative = inhibition
47 | CC(C)(C)NC(=O)/C(=C/c1ccco1)c1ccccc1 | inconclusive: 79.4 µM [inhibitor, single point] | 
48 | Cc1ccc(-n2c(C)cc(C3=NNC(=NC4CC4)SC3)c2C)cc1C | active: 50.1 µM | 
49 | COc1ccc(C(CNC(=O)c2ccco2)N2CCCC2)cc1 (configuration not stated) |  | inactive: 13.2%
50 | O=C(c1cccs1)c1cn(CCOc2ccc(Cl)cc2)c2ccccc12 |  | inactive: -10.5%
51 | O=C(NC(Nc1ncc(S(=O)(=O)c2ccc([N+](=O)[O-])cc2)s1)(C(F)(F)F)C(F)(F)F)c1ccc(Cl)cc1 | inconclusive: 70.8 µM [inhibitor, single point] | 
52 | Cc1cccc(-n2cc(CN3CCN(Cc4nccn4C)CC3)c(-c3cccc(F)c3)n2)c1 | inconclusive: 14.1 µM [inhibitor, partial curve] | 
53 | Cc1ccc(NC(=O)CSC2=C(C#N)C(c3ccco3)C3=C(CCCC3=O)N2)cc1 (configuration not stated) | inconclusive: 31.6 µM [inhibitor, partial curve] | 
54 | Cc1ccc(-c2nc(CS(=O)CC(=O)NC(C)CCc3ccccc3)c(C)o2)cc1 (configuration not stated) | inconclusive: 79.4 µM [inhibitor, single point] | 
55 | CCOc1ccc(N(CC(=O)Nc2cc(OC)cc(OC)c2)S(=O)(=O)c2c(C)[nH]c(=O)[nH]c2=O)cc1 | inconclusive: 89.1 µM [inhibitor, single point] | 
56 | c1nc(NCc2ccc3c(c2)OCO3)c2cc(-c3ccoc3)ccc2n1 | active: 50.1 µM | 
57 | COc1ccc([C@@H]2C=C(C(=O)O)O[C@H](OCCCCO)C2)cc1 | active: 79.4 µM | 
58 | COc1ccc(C(=O)Nc2cccc(-c3cn4ccsc4n3)c2)c(OC)c1 | inconclusive: 28.2 µM [inhibitor, partial curve] | 
59 | CN1CCN(c2ccc(NC(=O)CSc3nnnn3-c3ccccc3Cl)cc2)CC1 | inconclusive: 89.1 µM [inhibitor, single point] | 
60 | C=CCOc1c(Br)cc(CNc2nccs2)cc1OC | inconclusive: 50.1 µM [inhibitor, partial curve] | 
61 | CC(=O)[C@@H]1[C@@H]2C(=O)N(C3CCCCC3)C(=O)[C@@H]2C2c3ccccc3C=CN21 (some centres not stated) | inconclusive: 79.4 µM [inhibitor, single point] | 
62 | Cc1cccc(C)c1OCc1nnc(SCC(=O)Nc2nccs2)o1 | inconclusive: 89.1 µM [inhibitor, single point] | 
63 | Cc1ccsc1/C=N/N1CCN(c2ccccn2)CC1 | active: 39.8 µM | 
64 | CCN1CCN(Cc2c(O)ccc3c2O/C(=C\c2ccccc2)C3=O)CC1 | inconclusive: 100 µM [inhibitor, single point] | 
65 | O=[N+]([O-])c1ccccc1/C=N/N1CCN(c2ccccn2)CC1 | active: 12.6 µM | 
66 | CCNc1ccc(C(=O)OCC)cc1NC(=O)c1cccc(N(C)C)c1 | inconclusive: 44.7 µM [inhibitor, partial curve] | 
67 | CCCC(=O)OCC(=O)Nc1ccc(N=Nc2ccccc2)cc1 | inconclusive: 39.8 µM [inhibitor, full curve] | 
